# Laboratory results as given in the supplement of paper PMC8728848.
# The list shows a part of the results.
# B1: Pwp2 (Candida glabrata) (protein)
# chain: MGSSHHHHHHSSGLVPRGSHMASKNPVELNNVCTFPNDYGRIPGFTVLVGRLGLLISASDYKELLRYPGAFLIATQDTMTTSPNFELTGFPFFTGLYGLTVFPLDLLVELRGYFVPPNSGQYTFTLSDSDDAAIIFLGNPSAFPCGDLQNWPKPSEEDITVTDHLFPSRTLYLIEGVAYPMRIAYYNGIGAGRLNAAFIDPSGTRHTNWEGYIWQYDPCSTCTYS
# Columns and labels:
# Assay in all cases: glycan array binding signal (z-score within array); higher = stronger binding
# Conditions in all cases: glycan notation: IUPAC condensed, linker removed
# GlcNAc(b1-3)Gal(b1-4)Glc = biological target: GlcNAc(b1-3)Gal(b1-4)Glc
# Procedure, shortened: (§1)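 Glycan array binding is given as a within-array Z-score, which can be read as non-binding when negative. The arrays, 3228 of them, came from the Consortium for Functional Glycomics database and were retained only where the protein sequence was available. Z-scores were averaged across arrays of the same protein sequence at different concentrations or buffers and across linkers.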
# [1] = biological target: GlcNAc(b1-3)Gal(b1-4)GlcNAc
# Procedure, shortened: as §1
# [2] = biological target: GlcNAc(b1-3)Gal(b1-4)GlcNAc(b1-2)Man(a1-3)[GlcNAc(b1-3)Gal(b1-4)GlcNAc(b1-2)Man(a1-6)]Man(b1-4)GlcNAc(b1-4)GlcNAc
# Procedure, shortened: as §1
# [3] = biological target: GlcNAc(b1-3)Gal(b1-4)GlcNAc(b1-2)Man(a1-3)[GlcNAc(b1-3)Gal(b1-4)GlcNAc(b1-2)Man(a1-6)]Man(b1-4)GlcNAc(b1-4)[Fuc(a1-6)]GlcNAc
# Procedure, shortened: as §1
# [4] = biological target: GlcNAc(b1-3)Gal(b1-4)GlcNAc(b1-2)[GlcNAc(b1-3)Gal(b1-4)GlcNAc(b1-6)]Man(a1-6)[GlcNAc(b1-3)Gal(b1-4)GlcNAc(b1-2)Man(a1-3)]Man(b1-4)GlcNAc(b1-4)GlcNAc
# Procedure, shortened: as §1
# [5] = biological target: GlcNAc(b1-3)Gal(b1-4)GlcNAc(b1-3)Gal(b1-4)GlcNAc
# Procedure, shortened: as §1
# [6] = biological target: GlcNAc(b1-3)Gal(b1-4)GlcNAc(b1-3)Gal(b1-4)GlcNAc(b1-2)Man(a1-3)[GlcNAc(b1-3)Gal(b1-4)GlcNAc(b1-3)Gal(b1-4)GlcNAc(b1-2)Man(a1-6)]Man(b1-4)GlcNAc(b1-4)GlcNAc
# Procedure, shortened: as §1
# [7] = biological target: GlcNAc(b1-3)Gal(b1-4)GlcNAc(b1-3)Gal(b1-4)GlcNAc(b1-2)Man(a1-3)[GlcNAc(b1-3)Gal(b1-4)GlcNAc(b1-3)Gal(b1-4)GlcNAc(b1-2)Man(a1-6)]Man(b1-4)GlcNAc(b1-4)[Fuc(a1-6)]GlcNAc
# Procedure, shortened: as §1
# [8] = biological target: GlcNAc(b1-3)Gal(b1-4)GlcNAc(b1-3)Gal(b1-4)GlcNAc(b1-2)[GlcNAc(b1-3)Gal(b1-4)GlcNAc(b1-3)Gal(b1-4)GlcNAc(b1-6)]Man(a1-6)[GlcNAc(b1-3)Gal(b1-4)GlcNAc(b1-3)Gal(b1-4)GlcNAc(b1-2)Man(a1-3)]Man(b1-4)GlcNAc(b1-4)[Fuc(a1-6)]GlcNAc
# Procedure, shortened: as §1
# [9] = biological target: GlcNAc(b1-3)Gal(b1-4)GlcNAc(b1-3)Gal(b1-4)GlcNAc(b1-3)Gal(b1-4)GlcNAc(b1-2)Man(a1-3)[GlcNAc(b1-3)Gal(b1-4)GlcNAc(b1-3)Gal(b1-4)GlcNAc(b1-3)Gal(b1-4)GlcNAc(b1-2)Man(a1-6)]Man(b1-4)GlcNAc(b1-4)GlcNAc
# Procedure, shortened: as §1
# [10] = biological target: GlcNAc(b1-3)Gal(b1-4)GlcNAc(b1-3)Gal(b1-4)GlcNAc(b1-3)Gal(b1-4)GlcNAc(b1-2)Man(a1-3)[GlcNAc(b1-3)Gal(b1-4)GlcNAc(b1-3)Gal(b1-4)GlcNAc(b1-3)Gal(b1-4)GlcNAc(b1-2)Man(a1-6)]Man(b1-4)GlcNAc(b1-4)[Fuc(a1-6)]GlcNAc
# Procedure, shortened: as §1
# [11] = biological target: GlcNAc(b1-3)Gal(b1-4)GlcNAc(b1-3)Gal(b1-4)GlcNAc(b1-3)Gal(b1-4)GlcNAc(b1-2)[GlcNAc(b1-3)Gal(b1-4)GlcNAc(b1-3)Gal(b1-4)GlcNAc(b1-3)Gal(b1-4)GlcNAc(b1-6)]Man(a1-6)[GlcNAc(b1-3)Gal(b1-4)GlcNAc(b1-3)Gal(b1-4)GlcNAc(b1-3)Gal(b1-4)GlcNAc(b1-2)Man(a1-3)]Man(b1-4)GlcNAc(b1-4)[Fuc(a1-6)]GlcNAc
# Procedure, shortened: as §1
# [12] = biological target: GlcNAc(b1-3)Gal(b1-4)GlcNAc(b1-3)Gal(b1-4)GlcNAc(b1-3)Gal(b1-4)GlcNAc(b1-3)Gal(b1-4)GlcNAc(b1-2)Man(a1-3)[GlcNAc(b1-3)Gal(b1-4)GlcNAc(b1-3)Gal(b1-4)GlcNAc(b1-3)Gal(b1-4)GlcNAc(b1-3)Gal(b1-4)GlcNAc(b1-2)Man(a1-6)]Man(b1-4)GlcNAc(b1-4)GlcNAc
# Procedure, shortened: as §1
# [13] = biological target: GlcNAc(b1-3)Gal(b1-4)GlcNAc(b1-3)Gal(b1-4)GlcNAc(b1-3)Gal(b1-4)GlcNAc(b1-3)Gal(b1-4)GlcNAc(b1-2)Man(a1-3)[GlcNAc(b1-3)Gal(b1-4)GlcNAc(b1-3)Gal(b1-4)GlcNAc(b1-3)Gal(b1-4)GlcNAc(b1-3)Gal(b1-4)GlcNAc(b1-2)Man(a1-6)]Man(b1-4)GlcNAc(b1-4)[Fuc(a1-6)]GlcNAc
# Procedure, shortened: as §1
# [14] = biological target: GlcNAc(b1-3)Gal(b1-4)GlcNAc(b1-3)Gal(b1-4)GlcNAc(b1-3)Gal(b1-4)GlcNAc(b1-3)Gal(b1-4)GlcNAc(b1-2)[GlcNAc(b1-3)Gal(b1-4)GlcNAc(b1-3)Gal(b1-4)GlcNAc(b1-3)Gal(b1-4)GlcNAc(b1-3)Gal(b1-4)GlcNAc(b1-6)]Man(a1-6)[GlcNAc(b1-3)Gal(b1-4)GlcNAc(b1-3)Gal(b1-4)GlcNAc(b1-3)Gal(b1-4)GlcNAc(b1-3)Gal(b1-4)GlcNAc(b1-2)Man(a1-3)]Man(b1-4)GlcNAc(b1-4)[Fuc(a1-6)]GlcNAc
# Procedure, shortened: as §1
# [15] = biological target: GlcNAc(b1-3)Gal(b1-4)GlcNAc(b1-3)Gal(b1-4)GlcNAc(b1-3)GalNAc
# Procedure, shortened: as §1
# [16] = biological target: GlcNAc(b1-3)Gal(b1-4)GlcNAc(b1-3)GalNAc
# Procedure, shortened: as §1
# [17] = biological target: GlcNAc(b1-3)Gal(b1-4)GlcNAc(b1-3)[GlcNAc(b1-3)Gal(b1-4)GlcNAc(b1-3)]GalNAc
# Procedure, shortened: as §1
# [18] = biological target: GlcNAc(b1-3)Gal(b1-4)GlcNAc(b1-6)[Gal(b1-3)]GalNAc
# Procedure, shortened: as §1
# [19] = biological target: GlcNAc(b1-3)Gal(b1-4)GlcNAc(b1-6)[GlcNAc(b1-3)Gal(b1-3)]GalNAc
# Procedure, shortened: as §1
# [20] = biological target: GlcNAc(b1-3)Gal(b1-4)GlcNAc(b1-6)[GlcNAc(b1-3)]Gal(b1-4)GlcNAc
# Procedure, shortened: as §1
# GlcNAc(b1-3)GalNAc = biological target: GlcNAc(b1-3)GalNAc
# Procedure, shortened: as §1
# GlcNAc(b1-3)Man = biological target: GlcNAc(b1-3)Man
# Procedure, shortened: as §1
# [21] = biological target: GlcNAc(b1-3)[GlcNAc(b1-4)][GlcNAc(b1-6)]GlcNAc
# Procedure, shortened: as §1
# [22] = biological target: GlcNAc(b1-3)[GlcNAc(b1-6)]Gal(b1-4)GlcNAc
# Procedure, shortened: as §1
# [23] = biological target: GlcNAc(b1-3)[GlcNAc(b1-6)]GalNAc
# Procedure, shortened: as §1
# [24] = biological target: GlcNAc(b1-4)Gal(b1-4)GlcNAc
# Procedure, shortened: as §1
# GlcNAc(b1-4)GlcNAc = biological target: GlcNAc(b1-4)GlcNAc
# Procedure, shortened: as §1
# [25] = biological target: GlcNAc(b1-4)GlcNAc(b1-4)GlcNAc
# Procedure, shortened: as §1
# [26] = biological target: GlcNAc(b1-4)GlcNAc(b1-4)GlcNAc(b1-4)GlcNAc(b1-4)GlcNAc
# Procedure, shortened: as §1
# [27] = biological target: GlcNAc(b1-4)GlcNAc(b1-4)GlcNAc(b1-4)GlcNAc(b1-4)GlcNAc(b1-4)GlcNAc
# Procedure, shortened: as §1
# [28] = biological target: GlcNAc(b1-4)[GlcNAc(b1-6)]GalNAc
# Procedure, shortened: as §1
# [29] = biological target: GlcNAc(b1-6)Gal(b1-4)GlcNAc
# Procedure, shortened: as §1
# GlcNAc(b1-6)GalNAc = biological target: GlcNAc(b1-6)GalNAc
# Procedure, shortened: as §1
# [30] = biological target: GlcNAc6S(b1-3)Gal(b1-4)GlcNAc
# Procedure, shortened: as §1
# Kdn(a2-3)Gal(b1-3)GalNAc = biological target: Kdn(a2-3)Gal(b1-3)GalNAc
# Procedure, shortened: as §1
# Kdn(a2-3)Gal(b1-3)GlcNAc = biological target: Kdn(a2-3)Gal(b1-3)GlcNAc
# Procedure, shortened: as §1
# Kdn(a2-3)Gal(b1-4)Glc = biological target: Kdn(a2-3)Gal(b1-4)Glc
# Procedure, shortened: as §1
# Kdn(a2-3)Gal(b1-4)GlcNAc = biological target: Kdn(a2-3)Gal(b1-4)GlcNAc
# Procedure, shortened: as §1
# [31] = biological target: Kdn(a2-3)Gal(b1-4)[Fuc(a1-3)]GlcNAc
# Procedure, shortened: as §1
# Kdn(a2-6)Gal(b1-4)GlcNAc = biological target: Kdn(a2-6)Gal(b1-4)GlcNAc
# Procedure, shortened: as §1
# [32] = biological target: Man(a1-2)Man(a1-2)Man(a1-3)Man
# Procedure, shortened: as §1
# [33] = biological target: Man(a1-2)Man(a1-2)Man(a1-6)[Man(a1-3)]Man
# Procedure, shortened: as §1
# Man(a1-2)Man(a1-3)Man = biological target: Man(a1-2)Man(a1-3)Man
# Procedure, shortened: as §1
# [34] = biological target: Man(a1-2)Man(a1-3)[Man(a1-2)Man(a1-6)]Man
# Procedure, shortened: as §1
binder,measurement,setting,value
B1,glycan array binding signal (z-score),GlcNAc(b1-3)Gal(b1-4)Glc,-0.557
same,glycan array binding signal (z-score),[1],-0.422
same,glycan array binding signal (z-score),[2],-0.246
same,glycan array binding signal (z-score),[3],0.16
same,glycan array binding signal (z-score),[4],4.24
same,glycan array binding signal (z-score),[5],-0.843
same,glycan array binding signal (z-score),[6],0.226
same,glycan array binding signal (z-score),[7],-0.598
same,glycan array binding signal (z-score),[8],3.24
same,glycan array binding signal (z-score),[9],0.001
same,glycan array binding signal (z-score),[10],-0.307
same,glycan array binding signal (z-score),[11],5.45
same,glycan array binding signal (z-score),[12],-0.549
same,glycan array binding signal (z-score),[13],-0.552
same,glycan array binding signal (z-score),[14],0.521
same,glycan array binding signal (z-score),[15],-0.545
same,glycan array binding signal (z-score),[16],-0.267
same,glycan array binding signal (z-score),[17],0.5
same,glycan array binding signal (z-score),[18],0.49
same,glycan array binding signal (z-score),[19],-0.518
same,glycan array binding signal (z-score),[20],-0.459
same,glycan array binding signal (z-score),GlcNAc(b1-3)GalNAc,-0.337
same,glycan array binding signal (z-score),GlcNAc(b1-3)Man,-0.38
same,glycan array binding signal (z-score),[21],-0.623
same,glycan array binding signal (z-score),[22],-0.141
same,glycan array binding signal (z-score),[23],-0.005
same,glycan array binding signal (z-score),[24],-0.446
same,glycan array binding signal (z-score),GlcNAc(b1-4)GlcNAc,-0.503
same,glycan array binding signal (z-score),[25],0.164
same,glycan array binding signal (z-score),[26],-0.475
same,glycan array binding signal (z-score),[27],1.65
same,glycan array binding signal (z-score),[28],-0.585
same,glycan array binding signal (z-score),[29],-0.113
same,glycan array binding signal (z-score),GlcNAc(b1-6)GalNAc,0.84
same,glycan array binding signal (z-score),[30],-0.468
same,glycan array binding signal (z-score),Kdn(a2-3)Gal(b1-3)GalNAc,0.472
same,glycan array binding signal (z-score),Kdn(a2-3)Gal(b1-3)GlcNAc,-0.284
same,glycan array binding signal (z-score),Kdn(a2-3)Gal(b1-4)Glc,2.39
same,glycan array binding signal (z-score),Kdn(a2-3)Gal(b1-4)GlcNAc,0.176
same,glycan array binding signal (z-score),[31],1.8
same,glycan array binding signal (z-score),Kdn(a2-6)Gal(b1-4)GlcNAc,0.09
same,glycan array binding signal (z-score),[32],0.082
same,glycan array binding signal (z-score),[33],0.12
same,glycan array binding signal (z-score),Man(a1-2)Man(a1-3)Man,-0.465
same,glycan array binding signal (z-score),[34],-0.477
